Experimental data taken from the supplement of paper PMC11417369.
± gives the standard deviation of the averaged measurements. This is one part of the list.

Each sequence was assayed on PfAP2-I AP2 domain 3 (GST-tagged) (assay: gcPBM binding intensity (ln(normalized median fluorescence intensity)); higher = stronger DNA binding).
Method in brief: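 The highest Masliner-normalised natural-log median intensity across replicate spots of either probe orientation is reported as binding intensity. GST-tagged P. falciparum DNA-binding domains expressed in E. coli were applied for 1 h to an Agilent 4 × 180k array of primer-extended double-stranded 36-bp intergenic genomic probes plus negative controls, and bound protein was detected with Alexa488 anti-GST antibody and scanned at 488 nm.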

Row | Sequence | gcPBM binding intensity (ln)
1 | TTGTGTTAACTACCATGTACTTATACATCATAGGAA [XGTACX_site6627] | 7.66 ± 0.52
2 | ATTTATGTTATATATACACACACAAAAGAAAAAAAA [CACACA_site8977] | 7.84 ± 0.63
3 | TTTTTGTATGCTTCCCGATTACATTATGTTGTAAAT [CACACA_negctrl_site227] | 8.01 ± 0.76
4 | ATTTCAAATTAATTTACACACTTCATACTAAAAGAC [CACACA_site3176] | 8.2 ± 0.39
5 | TTGATATATAATAATACACACTTACATAATTAATTA [CACACA_site4320] | 7.88 ± 0.37
6 | ATTATATTCTCCTTCACACACAAAAATATTTCATCA [CACACA_site5326] | 8.07 ± 0.49
7 | TTACGATTAAATATAACACACAACATATTTTTAATA [CACACA_site2967] | 7.68 ± 0.4
8 | AAGGATATGAAAAGTAGTACAAAATTTAGAACACCC [XGTACX_site4758] | 8.52 ± 0.18
9 | CACAAAAATTTATACACACACATATATAATATATAT [CACACA_site152] | 7.84 ± 0.59
10 | AAGTATTACAACCACACACACACCTATATATCATAG [CACACA_site7878] | 8.18 ± 0.26
11 | ATCTTTTACGAATACACACACATAAAGAAAAAAAAA [CACACA_site1331] | 8.05 ± 0.42
12 | CTCTATAAATGCTGCACACACATTTAATTATTTAAG [CACACA_site2582] | 9.045 ± 0.064
13 | TATAAATATAAATATACACACATATTTATATTTATA [CACACA_site7053] | 7.67 ± 0.43
14 | TATAAATAAAAACACACACACACATATATATATATA [CACACA_site2268] | 9.29 ± 0.17
15 | AAATGAAATACATCCTGTACATAGTAATGCTAACAA [XGTACX_site6600] | 7.62 ± 0.53
16 | TTTTACAATGAAAGGTGTACAAGTAACAGTAGAACA [XGTACX_site1528] | 8.21 ± 0.45
17 | AACAAATACAGACACACACACACACTAATAAAAAAA [CACACA_site8067] | 8.1 ± 0.19
18 | TATTTTTATATTTTTGCACACATTCTTTACTCTTCA [CACACA_site2211] | 9.39 ± 0.32
19 | AAAAATTTTATATTCACACACATATATATATATATA [CACACA_site624] | 9.43 ± 0.57
20 | GATATATATTAATATACACACACACCGATATATATA [CACACA_site8462] | 8.06 ± 0.61
21 | TTTTGAAACATATGATGTACACGAACATTTAAAAAA [XGTACX_site474] | 9.66 ± 0.4
22 | AATAAATAGATAAGCACACAAGCATATAGACATATA [CACACA_site222] | 7.72 ± 0.49

Row | Sequence | gcPBM binding intensity (ln)
23 | AAATTCCACCAACACACACACATATAAATAAATAAA [CACACA_site1233] | 8.05 ± 0.25
24 | TTTATATTTTATAAATTATTCATAAATATATTTGTA [TGCATGCA_negctrl_site175] | 7.36 ± 0.3
25 | ATAAATAAAGGACACACACACACACTAGAAAAAAAA [CACACA_site5450] | 8.24 ± 0.15
26 | TTGTGCTTGATATCACGGACAAGCTCATATTATATA [XGTACX_site4553] | 8.1 ± 0.16
27 | AAAATAAAATTAGTTGCATGCAACTTAAACAGAAAT [TGCATGCA_site860] | 8.14 ± 0.63
28 | ATGAAAAAATTTATATGTACTTAAAATATAATCATA [XGTACX_site1228] | 7.64 ± 0.35
29 | TATATTATTAAGATATGTACATAATTATAAATTTAA [XGTACX_site6848] | 7.8 ± 0.19
30 | ATATGTAGATGATATTATTACTTTTCAAAAATTCAA [CACACA_negctrl_site933] | 7.58 ± 0.39
31 | TAATAAGAAATAACAGGTACACATATATAAATATTA [XGTACX_site2976] | 7.52 ± 0.41
32 | AAGTATAAAAAAAGGCGTACAAAAAAAAAAAAAAAA [XGTACX_site7309] | 8.24 ± 0.49
33 | TTTTTCATTAATACAAGTACAAAATGATGTTGACAT [XGTACX_site1475] | 7.67 ± 0.47
34 | TGTGCCCAAAATTATGCACACACCTAAAATTAATTT [CACACA_site2914] | 10.3 ± 0.4
35 | ATGGTAGTTCTCCATGCATGCCTTTTTATTATCATA [TGCATGCA_site681] | 7.84 ± 1
36 | TTTTTGTAAAAACACACACACAAACAGAAAAAATAA [CACACA_site2076] | 8.25 ± 0.61
37 | ATTATCATAATGTTCACACATATGGTATATATAGAT [CACACA_site6113] | 7.78 ± 0.53
38 | ACTATTTAGTCTGGTGGTACTTTATATATAATTTCT [XGTACX_site5618] | 8.11 ± 0.49
39 | ATATGTGTATGTGCGTGTACATATCTATACAGTTGT [XGTACX_site6540] | 8.29 ± 0.52
40 | TTTTATCTTTTTTTATTTTAATGTATTATTTTTATG [XGTACX_negctrl_site24] | 7.62 ± 0.65
41 | GAATATAATCTGTATTGTACGAAAGTTGAACACTTG [XGTACX_site8895] | 8.09
42 | TGAGCATAAAAAGGGTGTACTTAAATATATTATATA [XGTACX_site7556] | 8.07 ± 0.27
43 | TTTAGATAATTCATTACACACATGTATTTATATATA [CACACA_site5847] | 7.65 ± 0.57
44 | TATATATATATATATATATATACAAATATATATTAT [CACACA_negctrl_site1729] | 9.31 ± 0.66

Row | Sequence | gcPBM binding intensity (ln)
45 | TTGTATTATTATGTTGCACACATTTTATATAAAATA [CACACA_site3641] | 9.5 ± 0.099
46 | ATAAAAGATATTTTTACACACTTTTGATGAGATCGT [CACACA_site3053] | 7.76 ± 0.72
47 | GGTTGTATAAGTTTTTGTACATATATATATATATAT [XGTACX_site7487] | 9.26 ± 0.49
48 | TTCAAGGTTTTAGATTGTACAATTATTATATATATA [XGTACX_site8982] | 8.56 ± 0.45
49 | ATACCAACATATTATACACACCTTTATATTTTTTTT [CACACA_site5217] | 8.2 ± 0.57
50 | TTTATTATACAAAATTGTACTTTATAATTTTATGTA [XGTACX_site5846] | 7.62 ± 0.35
51 | AAATATTACGGAATAAAGAGCTTTTAAATAATTTTA [CACACA_negctrl_site1700] | 7.22 ± 0.66
52 | AAATATAAACGGCACACACACAAAAAAAGAAAAAAA [CACACA_site649] | 8.15 ± 0.26
53 | AGAAACCTTGTTAGTTAGCATATATATATATATATA [CACACA_negctrl_site372] | 9.46 ± 0.46
54 | TATTTTATACATATTTTACACACTAATATATACATA [CACACA_site7998] | 7.95 ± 0.47
55 | AAATGTTATAACTCTTGAAAAAACAAAATATCATCA [CACACA_negctrl_site1156] | 7.57 ± 0.49
56 | ACTTTACAATATATATGTACATATTAATAAACATAT [XGTACX_site3689] | 8.06 ± 0.43
57 | AAAATAATATATGTATGTACATATACACATATAGAA [XGTACX_site2218] | 7.65 ± 0.4
58 | GAGTTTTTTTAATGATGTACATTTTAAAAATAAACG [XGTACX_site1036] | 7.88 ± 0.19
59 | GAACGCCATTCACATAAAGGGATACATAAATAAATA [XGTACX_negctrl_site330] | 7.69 ± 0.34
60 | GCGTTATTAAATAATTCACACACATATATATATATA [CACACA_site8711] | 9.36 ± 0.33
61 | AAGAAAAACTTTACGTGTACCAAACGTCATGCCAAC [XGTACX_site2575] | 7.76 ± 0.7
62 | TAATTTCTTATGTATTGTACAAATAATGTATGATAT [XGTACX_site270] | 8.04 ± 0.36
63 | AATCACAAATAAAATAATATGACACAATATAAAATA [CACACA_negctrl_site537] | 7.71 ± 0.63
64 | TACTTACACTGTTTTTGTACTTATTTCCCTTTTATT [XGTACX_site2158] | 8.11 ± 0.85
65 | TTCTTGTATTTTCATAGTACATATAATGTCGTATTA [XGTACX_site600] | 7.87 ± 0.57
66 | TTTATAAAAATGAACACACACATATATATATATATA [CACACA_site3493] | 9.56 ± 0.67

Row | Sequence | gcPBM binding intensity (ln)
67 | AAATATTTATAGGTTTGTACTTATAAATAAAAAAAA [XGTACX_site7360] | 7.83 ± 0.41
68 | AATATGAAAAGATGAACAACAAAATGGAGAACAATA [GTGCAC_negctrl_site612] | 7.99 ± 0.69
69 | ATACAAAATTTTTAAGAACACACAAAAATGTACTAT [CACACA_site8817] | 7.79 ± 0.61
70 | TGAGGTAACTAAATATGTACGTAACGAAGATACATA [XGTACX_site8231] | 7.62 ± 0.38
71 | ATTCATTCATATGTTACACACACACGCCCACATAAA [CACACA_site7513] | 8.36 ± 0.62
72 | TAAAAAAAGGTTATTGGTACACACATATGTATATAT [XGTACX_site1029] | 7.81 ± 0.57
73 | TTATATATATATATATATATTTACATAATAATATGT [GTGCAC_negctrl_site388] | 8 ± 0.39
74 | TAAACTTTCCAGTGTTGTACATAATAATTATTATAT [XGTACX_site8896] | 7.79 ± 0.44
75 | AAAGATATGAAATATACACACTTCTTTGGTATTATT [CACACA_site6352] | 7.43 ± 0.71
76 | TATTTATGTATATGCTGTACGCATTTGTGAAACATA [XGTACX_site4688] | 8.19 ± 0.25
77 | AACCAATTAGAAGGATCCAGAACTTATTTGTTTTTA [CACACA_negctrl_site1744] | 7.22 ± 0.44
78 | AGTTTGTCAATCAACACACACCTATTTATTATATAT [CACACA_site6030] | 7.89 ± 0.42
79 | TACAAGCCCAATTCAAGTACATATATATATATATAT [XGTACX_site5569] | 9.32 ± 0.23
80 | TCATATATCATAACAGTGCAAAAAAAAAAAAATTAT | 10.09 ± 0.014
81 | AGAAAATATACAAAACGTACTTATATATTATATCTA [XGTACX_site3104] | 7.46 ± 0.3
82 | AAAAAAAAAAAAGAAACACACATATATATATATATA [CACACA_site140] | 9.34 ± 0.057
83 | GTTTGATTAAACTTGACACACATATATATAAATATA [CACACA_site1784] | 7.8 ± 0.49
84 | GTTAGAGGGAAAAAGAGTACATATATGTGGATAATT [XGTACX_site2064] | 8.3 ± 0.76
85 | GTTGCGTATATATACACACATACATATATATATATA [CACACA_site1607] | 9.29 ± 0.39
86 | TTATATAATAAAAATTGTACATATTATATATATATT [XGTACX_site3427] | 7.49 ± 0.4
87 | TATGAAAGAAATAGTACACACATAAACATTTGTAAA [CACACA_site2783] | 7.86 ± 0.21
88 | TAATATTCAATTATACGTACACATATATATATATAT [XGTACX_site4245] | 9.33 ± 0.54
